PubChem BioAssay AID220 (DTP/NCI, 2004)
Inconclusive results are not listed. The source holds more than one record for some entries. The list is limited to them. The source may hold further records. Values given together repeat one measurement in other runs, samples, wells, individuals or studies.

Test system: CD8F1 mice, subcutaneous mammary adenocarcinoma, T/C%
Assay: NCI In Vivo Anticancer Drug Screen. Data for tumor model Mammary Adenocarcinoma CD8F1 (subcutaneous) in CD8F1
Settings: higher = larger tumour
Protocol: The antitumor activity of compounds was measured in mice bearing transplantable tumors. Survival or tumor size were measured and the results are expressed as the measurement made in the treated group (T) divided by the measurement made in the vehicle treated control group (C). The tumor model used in this assay is Mammary Adenocarcinoma CD8F1 (subcutaneous) in CD8F1

[1] = endpoint: median tumor weight (est.), dose: 12.5 mg/kg/injection, schedule: Q07DX005 (ip), vehicle: saline with Tween-80
[2] = endpoint: median tumor weight (est.), dose: 100.0 mg/kg/injection, schedule: Q07DX005 (ip), vehicle: saline with Tween-80
[3] = endpoint: median tumor weight (est.), dose: 400.0 mg/kg/injection, schedule: Q07DX005 (ip), vehicle: saline with Tween-80
[4] = endpoint: median tumor weight (est.), dose: 800.0 mg/kg/injection, schedule: Q07DX005 (ip), vehicle: Klucel (hydroxypropylcellulose) (HPC)
[5] = endpoint: median tumor weight (est.), dose: 50.0 mg/kg/injection, schedule: Q07DX005 (ip), vehicle: saline with Tween-80
[6] = endpoint: median tumor weight (est.), dose: 100.0 mg/kg/injection, schedule: Q07DX005 (ip), vehicle: Klucel (hydroxypropylcellulose) (HPC)
[7] = endpoint: median tumor weight (est.), dose: 25.0 mg/kg/injection, schedule: Q07DX005 (ip), vehicle: saline with Tween-80
[8] = endpoint: median tumor weight (est.), dose: 25.0 mg/kg/injection, schedule: Q07DX005 (ip), vehicle: saline

With `CC[C@H](CC[C@@H](C)C1CC[C@H]2[C@@H]3CC=C4C[C@@H](OP(=O)(N5CC5)N5CC5)CC[C@]4(C)[C@H]3CC[C@]12C)C(C)C` (some centres not stated) the T/C [1] was 33 % of control and 188 % of control, the T/C [2] was 35 % of control and 183 % of control and the T/C [3] was 51 % of control and 162 % of control.

With `CN(C)N=Nc1cccc(C(N)=O)c1` the T/C (endpoint: median tumor weight (est.), dose: 10.0 mg/kg/injection, schedule: Q07DX005 (ip), vehicle: Klucel (hydroxypropylcellulose) (HPC)) was 51 % of control and 103 % of control, the T/C (endpoint: median tumor weight (est.), dose: 40.0 mg/kg/injection, schedule: Q07DX005 (ip), vehicle: Klucel (hydroxypropylcellulose) (HPC)) was 38 % of control and 66 % of control and the T/C (endpoint: median tumor weight (est.), dose: 80.0 mg/kg/injection, schedule: Q07DX005 (ip), vehicle: Klucel (hydroxypropylcellulose) (HPC)) was 24 % of control and 70 % of control.

In the case of `Nc1nncs1`, the T/C (endpoint: median tumor weight (est.), dose: 200.0 mg/kg/injection, schedule: Q07DX005 (ip), vehicle: Klucel (hydroxypropylcellulose) (HPC)) was 21 % of control and 48 % of control and the T/C [4] was 7 % of control and 63 % of control.

`O=S(=O)(c1ccccc1)N1CN2CCN(C2)C1` was tested, and the T/C [1] was 64 % of control and 115 % of control, the T/C [5] was 40 % of control and 109 % of control and the T/C [2] was 48 % of control and 105 % of control. The T/C [3] was 44 % of control and 78 % of control.

With `CC(=O)OCC1OC(OC(C)=O)C(NC(=O)N(CCCl)N=O)C(OC(C)=O)C1OC(C)=O` (configuration not stated) the T/C (endpoint: median tumor weight (est.), dose: 6.0 mg/kg/injection, schedule: Q07DX005 (ip), vehicle: Klucel (hydroxypropylcellulose) (HPC)) was 19 % of control, 33 % of control, 45 % of control and the T/C (endpoint: median tumor weight (est.), dose: 12.0 mg/kg/injection, schedule: Q07DX005 (ip), vehicle: Klucel (hydroxypropylcellulose) (HPC)) was 18 % of control, 50 % of control, 62 % of control.

For `CC(C)CCCCCCCCCCCCC(=O)NCC(=O)NC1C(C)OC(Nc2ncnc3nc[nH]c23)C(O)C1O` (configuration not stated), the T/C (endpoint: median tumor weight (est.), dose: 0.5 mg/kg/injection, schedule: Q07DX005 (ip), vehicle: distilled water + Tween-80) was 92 % of control and 120 % of control, the T/C (endpoint: median tumor weight (est.), dose: 1.0 mg/kg/injection, schedule: Q07DX005 (ip), vehicle: distilled water + Tween-80) was 72 % of control and 110 % of control and the T/C (endpoint: median tumor weight (est.), dose: 2.0 mg/kg/injection, schedule: Q07DX005 (ip), vehicle: distilled water + Tween-80) was 78 % of control and 122 % of control. For the same compound, the T/C (endpoint: median tumor weight (est.), dose: 4.0 mg/kg/injection, schedule: Q07DX005 (ip), vehicle: distilled water + Tween-80) was 42 % of control and 109 % of control.

In the case of `CS(=O)(=O)OCCCCOS(C)(=O)=O`, the T/C (endpoint: median tumor weight (est.), dose: 50.0 mg/kg/injection, schedule: Q07DX005 (ip), vehicle: Klucel (hydroxypropylcellulose) (HPC)) was 32 % of control and 111 % of control and the T/C [6] was 3 % of control and 99 % of control.

With `CCCC(=O)Oc1ccc(/C=N/NC(N)=S)nc1` the T/C [7] was 83 % of control and 124 % of control, the T/C [2] was 54 % of control and 120 % of control and the T/C (endpoint: median tumor weight (est.), dose: 200.0 mg/kg/injection, schedule: Q07DX005 (ip), vehicle: saline with Tween-80) was 70 % of control and 114 % of control.

In the case of `CCN(CC)CCOC(=O)Cc1cccc2c(=O)cc(-c3ccccc3)oc12`, the T/C [8] was 62 % of control and 124 % of control, the T/C (endpoint: median tumor weight (est.), dose: 50.0 mg/kg/injection, schedule: Q07DX005 (ip), vehicle: saline) was 27 % of control, 53 % of control, 86 % of control and the T/C (endpoint: median tumor weight (est.), dose: 100.0 mg/kg/injection, schedule: Q07DX005 (ip), vehicle: saline) was 91 % of control, 93 % of control, 170 % of control. The T/C (endpoint: median tumor weight (est.), dose: 200.0 mg/kg/injection, schedule: Q07DX005 (ip), vehicle: saline) was 9 % of control and 37 % of control.

With `c1ccc([P+](c2ccccc2)(c2ccccc2)c2ccccc2)cc1` the T/C (endpoint: median tumor weight (est.), dose: 0.31 mg/kg/injection, schedule: Q04DX005 (ip), vehicle: saline) was 102 % of control and 162 % of control, the T/C (endpoint: median tumor weight (est.), dose: 0.62 mg/kg/injection, schedule: Q07DX004 (ip), vehicle: saline) was 77 % of control and 116 % of control and the T/C (endpoint: median tumor weight (est.), dose: 2.5 mg/kg/injection, schedule: Q07DX004 (ip), vehicle: saline) was 76 % of control and 119 % of control.

For `CCc1ccccc1N1CCN(C(=O)c2cc(OC)c(OC)c(OC)c2)CC1`, the T/C (endpoint: median tumor weight (est.), dose: 12.5 mg/kg/injection, schedule: Q04DX005 (ip), vehicle: Klucel (hydroxypropylcellulose) (HPC)) was 29 % of control and 186 % of control, the T/C (endpoint: median tumor weight (est.), dose: 25.0 mg/kg/injection, schedule: Q04DX005 (ip), vehicle: Klucel (hydroxypropylcellulose) (HPC)) was 29 % of control and 167 % of control and the T/C (endpoint: median tumor weight (est.), dose: 25.0 mg/kg/injection, schedule: Q07DX004 (ip), vehicle: Klucel (hydroxypropylcellulose) (HPC)) was 117 % of control and 195 % of control. The T/C (endpoint: median tumor weight (est.), dose: 50.0 mg/kg/injection, schedule: Q07DX004 (ip), vehicle: Klucel (hydroxypropylcellulose) (HPC)) was 93 % of control and 124 % of control, the T/C (endpoint: median tumor weight (est.), dose: 200.0 mg/kg/injection, schedule: Q04DX005 (ip), vehicle: Klucel (hydroxypropylcellulose) (HPC)) was 51 % of control and 117 % of control and the T/C (endpoint: median tumor weight (est.), dose: 200.0 mg/kg/injection, schedule: Q07DX004 (ip), vehicle: Klucel (hydroxypropylcellulose) (HPC)) was 52 % of control and 88 % of control. For the same compound, the T/C (endpoint: median tumor weight (est.), dose: 400.0 mg/kg/injection, schedule: Q07DX004 (ip), vehicle: Klucel (hydroxypropylcellulose) (HPC)) was 37 % of control and 81 % of control.

For `C[C@]12CCC(=O)C=C1CC[C@@H]1[C@@H]2C(=O)C[C@@]2(C)[C@H]1CC[C@]2(O)C(=O)CO`, the T/C [6] was 48 % of control and 102 % of control, the T/C (endpoint: median tumor weight (est.), dose: 400.0 mg/kg/injection, schedule: Q07DX005 (ip), vehicle: Klucel (hydroxypropylcellulose) (HPC)) was 21 % of control, 47 % of control, 64 % of control and the T/C [4] was 15 % of control, 35 % of control, 96 % of control.

With `O=[N+]([O-])c1ccc(Cl)c([N+](=O)[O-])c1` the T/C (endpoint: median tumor weight (est.), dose: 30.0 mg/kg/injection, schedule: Q07DX005 (ip), vehicle: saline with Tween-80) was 92 % of control and 182 % of control and the T/C (endpoint: median tumor weight (est.), dose: 60.0 mg/kg/injection, schedule: Q07DX005 (ip), vehicle: saline with Tween-80) was 80 % of control and 157 % of control.

With `CCCCCCCC(=O)[O][Hg][CH2]C1COC([CH2][Hg][O]C(=O)CCCCCCC)CO1` (configuration not stated) the T/C [7] was 36 % of control and 100 % of control.

In the case of `CS(=O)(=O)OCCN(CCOS(C)(=O)=O)c1ccc(C=O)cc1`, the T/C [5] was 79 % of control and 247 % of control.

In the case of `COc1cc(C(C)(C)C)cc(OC)c1C(O)(c1c(OC)cc(C(C)(C)C)cc1OC)c1c(OC)cc(C(C)(C)C)cc1OC`, the T/C (endpoint: median tumor weight change, dose: 125.0 mg/kg/injection, schedule: Q01DX001 (ip), vehicle: saline with Tween-80) was 65 % of control and 95 % of control.

With `CCOC(=O)C(CC(C)C)NC(=O)C(Cc1ccc(N(CCCl)CCCl)cc1)NC(C)=O` (configuration not stated) the T/C (endpoint: median tumor weight (est.), dose: 16.0 mg/kg/injection, schedule: Q07DX005 (ip), vehicle: saline with Tween-80) was 64 % of control and 91 % of control.

With `O=P1(N(CCCl)CCCl)NCCCO1` (configuration not stated) the T/C (endpoint: mean tumor weight, dose: 20.0 mg/kg/injection, schedule: Q01DX009 (ip), vehicle: saline) was 24 % of control and 62 % of control and the T/C (endpoint: median tumor weight (est.), dose: 37.5 mg/kg/injection, schedule: Q07DX005 (ip), vehicle: saline) was 16 % of control and 45 % of control.

For `CCOC(=O)NC1=C(N2CC2)C(=O)C(NC(=O)OCC)=C(N2CC2)C1=O`, the T/C (endpoint: median tumor weight change, dose: 5.0 mg/kg/injection, schedule: Q01DX001 (ip), vehicle: saline with Tween-80) was 51 % of control and 120 % of control.

`Cc1c[nH]c(=O)[nH]c1=O` was tested, and the T/C (endpoint: median tumor weight (est.), dose: 32.0 mg/kg/injection, schedule: Q07DX005 (ip), vehicle: Klucel (hydroxypropylcellulose) (HPC)) was 32 % of control and 153 % of control.

With `O=C1NC2(CCCCC2)C(=O)N1CCN(CCCl)CCCl` the T/C (endpoint: median tumor weight change, dose: 18.75 mg/kg/injection, schedule: Q01DX001 (ip), vehicle: saline with Tween-80) was 34 % of control and 74 % of control and the T/C (endpoint: median tumor weight change, dose: 37.5 mg/kg/injection, schedule: Q01DX001 (ip), vehicle: saline with Tween-80) was 22 % of control and 64 % of control.

In the case of `CNc1n[n+](-c2ccccc2)no1`, the T/C (endpoint: median tumor weight (est.), dose: 6.25 mg/kg/injection, schedule: Q07DX005 (ip), vehicle: saline) was 117 % of control and 151 % of control, the T/C (endpoint: median tumor weight (est.), dose: 12.5 mg/kg/injection, schedule: Q07DX005 (ip), vehicle: saline) was 87 % of control and 123 % of control and the T/C [8] was 108 % of control and 199 % of control.

With `COC1C(O)CC(OC2CC(OC3CC(O[C@@H]4C(=O)c5c(cc6cc(OC7CC(OC8CC(O)C(O)C(C)O8)C(O)C(C)O7)c(C)c(O)c6c5O)C[C@H]4[C@H](OC)C(=O)[C@@H](O)[C@@H](C)O)OC(C)C3O)OC(C)C2O)OC1C` (some centres not stated) the T/C (endpoint: median tumor weight (est.), dose: 0.37 mg/kg/injection, schedule: Q07DX005 (ip), vehicle: saline) was 14 % of control and 53 % of control and the T/C (endpoint: median tumor weight (est.), dose: 1.5 mg/kg/injection, schedule: Q07DX005 (ip), vehicle: saline) was 21 % of control and 49 % of control.
